# Measured values as given in PubChem BioAssay AID1346428 (National Center for Advancing Translational Sciences (NCATS), 2018).
# In all, about 48,000 compounds went through this assay and about 1,200 (2.5%) were called active. Roughly 2% stayed inconclusive and do not appear here.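 How the source made its calls: active means activation of at least 60% and not above a set upper limit (about 1 call in 100 departs from these limits); inconclusive means activation of 40% to 60%, or above that upper limit; inactive means activation under 40%.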 This is one part of the list.
# Target: Probable G-protein coupled receptor 32 (Homo sapiens) (UniProt O75388)
# Chain of UniProt O75388 (O75388 whole entry, looked up): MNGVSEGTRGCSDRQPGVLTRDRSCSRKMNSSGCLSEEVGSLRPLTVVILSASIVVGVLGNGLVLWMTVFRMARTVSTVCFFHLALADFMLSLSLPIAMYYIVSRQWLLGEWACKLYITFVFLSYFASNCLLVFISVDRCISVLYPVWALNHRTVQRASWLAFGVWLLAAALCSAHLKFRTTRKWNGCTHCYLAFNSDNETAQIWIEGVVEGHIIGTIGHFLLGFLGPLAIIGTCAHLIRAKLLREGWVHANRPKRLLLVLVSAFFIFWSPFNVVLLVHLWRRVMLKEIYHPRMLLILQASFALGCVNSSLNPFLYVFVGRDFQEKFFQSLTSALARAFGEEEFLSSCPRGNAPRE
# Assay: qHTS for Agonists of Human Resolvin D1 Receptor DRV1; further: 0% is about no effect
# Details: CHO-K1 GPR32 beta-arrestin PathHunter luminescence, 90 min; at 76.9 µM; hits give high values; zero percent set by DMSO-only wells
# How it was run: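 Using DMSO wells as EC0, agonist-induced signal was taken as chemiluminescence from beta-Gal reconstituted upon beta-arrestin recruitment to GPR32 in CHO-K1 cells after 90 min compound treatment.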
row,Compound,activation
1,COc1cc(OC)c(NC(=O)N2CCc3cc(OC)c(OC)cc3C2CC(=O)O)cc1Cl (stereo not given),inactive: -15.4%
2,CCc1ccc(C2CC(=O)c3c([nH]c(C(=O)OCCOc4ccccc4)c3C)C2)cc1 (stereo not given),inactive: 22.5%
3,COc1ccc(Nc2cc(C)nc3c(C)c(C)ccc23)cc1,inactive: 12.5%
4,NS(=O)(=O)c1cc2c(cc1C(F)(F)F)NCNS2(=O)=O,inactive: -8%
5,CC(C)NC[C@@H](O)COc1ccc(CC(N)=O)cc1,inactive: -42.2%
6,Cc1ccc(Cl)cc1NC(c1ccc(F)cc1)c1nnc(-c2ccccc2)o1 (stereo not given),inactive: -7.08%
7,Cc1ccc(NC(=O)C(CC(C)C)NS(=O)(=O)c2ccc3c(c2)oc(=O)n3C)c(C)c1 (stereo not given),inactive: 11%
8,Cc1ccc2onc(CNC(=O)Nc3cc(F)ccc3F)c2c1,inactive: -3.75%
9,Cc1ccc2c(c1)Cc1c(nc(-c3ccc(Cl)cc3)nc1SCC(=O)N1CCCCC1)O2,inactive: 8.77%
10,Cc1ccn2c(Nc3ccc4c(c3)OCCO4)c(-c3cccs3)nc2c1,inactive: -2.25%
11,COc1cccc2c1Oc1ncccc1N(c1ccc(C(=O)NCc3ccccc3Cl)s1)C2,inactive: -13.1%
12,CC(=O)N1CCc2c(sc3c2c(=O)n(CCc2ccccc2)c(=O)n3CC(=O)Nc2ccc(C)c(F)c2)C1,inactive: 7.02%
13,O=C(CSc1nnc(-c2ccc(Cl)cc2)o1)Nc1ccc(F)cc1,inactive: -19.6%
14,COc1ccc(-n2c(=O)c3ccccc3n(Cc3cccc(C)c3)c2=O)cc1,inactive: -5.79%
15,COc1cccc(Cn2c(CNS(=O)(=O)c3ccc(C(C)(C)C)cc3)nc3cccnc32)c1,inactive: -15.4%
16,CCCN(c1ccc(C(C)C)cc1)S(=O)(=O)c1ccc2c(c1)oc(=O)n2CC(=O)OCC,inactive: -14.3%
17,COc1ccccc1N1CCN(C(=O)c2cc(S(=O)(=O)N3CCC(C)CC3)cn2C)CC1,inactive: 3.88%
18,COc1ccc(-c2nc(CNC(=O)Nc3ccccc3)c(C)o2)cc1,inactive: 26.3%
19,COc1cc2c(-c3cc(Br)ccc3O)nc3c(c(C)nn3-c3ccccc3)c2cc1OC,inactive: -1.75%
20,CCOC(=O)Cn1c(=O)n(CC2CCCO2)c2nc(-c3ccc(C(C)C)cc3)nc(C(N)=O)c21 (stereo not given),inactive: -18.8%
21,NC(=O)CCCCC1CCSS1 (stereo not given),inactive: -76.6%
22,O=C(Nc1nnc(S(=O)(=O)Nc2ccccc2)s1)C1CCCCC1,inactive: -4.1%
23,CCCSc1nnc2[nH]c(=O)cc(C)n12,inactive: -0.514%
24,CCOC(=O)c1ccc(N2C(=O)c3n[nH]c(C)c3C2c2ccc(OCC)cc2)cc1 (stereo not given),inactive: -7.25%
25,Cc1ccccc1N(C)S(=O)(=O)c1nnc(NC(=O)C(C)C)s1,inactive: -1.84%
26,COc1ccccc1N1CCN(CCCCNC(=O)c2ccc(-c3ccc(C(C)=O)cc3)cc2)CC1,inactive: 0.854%
27,Cc1ccccc1NC(=O)Cn1c(=O)n(Cc2ccccc2)c(=O)c2sc3ccccc3c21,inactive: -24%
28,CCOc1ccc(C(=O)NCC(c2ccco2)S(=O)(=O)c2cccs2)cc1 (stereo not given),inactive: -5.57%

row,Compound,activation
1,Cc1ccccc1-c1nn2c(=O)cc(CN3CCN(S(=O)(=O)c4ccc(Cl)cc4)CC3)nc2s1,inactive: 3.25%
2,COc1ccc2c(C)c(CCC(=O)NCc3ccc(Cl)cc3)c(=O)oc2c1C,inactive: 6.47%
3,CCN(Cc1ccccc1)C(=O)c1nn(-c2ccc(OC)cc2)c(=O)c2c1c1ccccc1n2C,inactive: -9.38%
4,Cc1nn(-c2ccc(N3CCCC3)nn2)c(C)c1CCC(=O)N1CCN(c2ccccc2)CC1,inactive: -3.03%
5,COC(=O)c1ccc(C(=O)OC)c(NC(=O)c2cnn3c(C(F)F)cc(-c4ccccc4)nc23)c1,inactive: 2.13%
6,O=C(COc1ccccc1F)Nc1ccccc1OCc1cc(=O)n2ccccc2n1,inactive: -3.98%
7,CC(C)c1ccc(NC(=O)c2ccc(F)c(S(=O)(=O)N3CCCC3)c2)cc1,inactive: 31.7%
8,CC1CCN(C(=O)Cn2cc(SCc3ccccc3)c3ccccc32)CC1,inactive: -26.4%
9,CN1C(CCl)Nc2cc(Cl)c(S(N)(=O)=O)cc2S1(=O)=O (stereo not given),inactive: 10.6%
10,CCCc1nnc(N2C(=O)c3oc4ccc(F)cc4c(=O)c3C2c2ccc(C(=O)OC)cc2)s1 (stereo not given),inactive: 8.24%
11,COc1ccccc1OCC(=O)Nc1nnc2n1CCS2,inactive: -21.2%
12,C[C@@H](NCCc1ccc(O)cc1)[C@@H](O)c1ccc(O)cc1,inactive: -0.184%
13,COc1cc2ccccc2cc1C(=O)N1CCN(c2nc3c(C)cc(C)cc3s2)CC1,inactive: -5.76%
14,CC1CCN(c2nnc(-n3cccc3CNc3cccc(F)c3)s2)CC1,inactive: -3.78%
15,CCOc1ccc(-n2cc(C(=O)Nc3ccccc3OCC)c3cc(OC)c(OC)cc3c2=O)cc1,inactive: -10.3%
16,Cc1cccc(NC(=O)C2CCN(S(=O)(=O)c3cccc4nsnc34)CC2)c1,inactive: 18.9%
17,CCC(C)NC(=O)Cn1c(=O)n(CC2CCC(C(=O)NC)CC2)c(=O)c2sccc21 (stereo not given),inactive: -8.25%
18,CCC(C(=O)OCCN1CCOC(c2ccccc2)C1C)c1ccccc1 (stereo not given),active: 61.8%
19,Cc1ccc2nc(-c3ccccc3O)c(Nc3ccccc3C)n2c1,inactive: -18%
20,CCc1ccccc1NC(=O)N1CCN(c2nnc(C)c3c(C)n(-c4ccccc4)nc23)CC1,inactive: 8.87%
21,CCOC(=O)c1c(NC(=O)CS(=O)(=O)c2ccc(C)cc2)sc2c1CCC(C)C2 (stereo not given),inactive: -31.5%
22,CC1CCN(C(=O)Cn2cc(SCc3cccc(F)c3)c3ccccc32)CC1,inactive: -31%
23,Cc1cccc(OCC(=O)Nc2nonc2-c2ccc(Br)cc2)c1C,inactive: 49.1%
24,CCCN1C(=O)C(O)(CC(=O)c2ccc(CC)cc2)c2cc(Br)ccc21 (stereo not given),inactive: 27.1%
25,Cc1cccc(C)c1-n1ncc(C(=O)NCc2ccc3c(c2)OCO3)c1C1CCN(C(=O)OC(C)(C)C)CC1,inactive: -40.4%
26,CCc1ccc(OCC(=O)N(Cc2ccc(C)cc2)Cc2ccco2)cc1,inactive: 36.8%
27,O=C(COc1ccc(Cl)cc1)Nc1sc2c(c1C(=O)Nc1cccc(Cl)c1)CCCC2,inactive: -1.22%
